Measurements: ChEMBL document CHEMBL1157539, “Thousands of chemical starting points for antimalarial lead identification” (Nature, 2010)
Several values for one entry are separate records, joined by “and”; a condition that tells them apart may be missing. Identical values can stand only once. Whole data set: some 13,000 compounds, median “IFI” near 4, cut for the highest 2% near 17. The list shows a part of the results.

Assay: GSK_TCMDC: Inhibition Frequency Index (IFI). The number of non-kinase HTS assays where a compound showed > 50 % inhibition, expressed as a percentage of the number of such assays in which the compound was tested (-0 is zero)
Type: functional

| SMILES | IFI |
| --- | --- |
| CC1(C)N=C(N)N=C(N)N1c1ccc([N+](=O)[O-])cc1 | 0.73% |
| Cc1c(C)c2c(c(C)c1O)CC[C@@](C)(C(=O)N1CCC(CN3CCC(c4c[nH]c5ccccc45)CC3)CC1)O2 | 6.87% |
| CCC1(C)CC(CCNCc2ccccc2O)(c2ccc(C)cc2)CCO1 (stereo not drawn) | 1.47% |
| CCOC(=O)c1ccc(CC(C)NCC(O)c2cccc(C(F)(F)F)c2)cc1 (stereo not drawn) | 2.9% |
| CC[C@H]1CN2CC[C@H]1C[C@H]2[C@H](O)c1cc(-c2ccccc2C(F)(F)F)nc2ccc(OC)cc12 | 2.86% |
| COc1ccc(OC)c(C(O)C(C)NCc2cc(Cl)ccc2O)c1 (stereo not drawn) | 0.71% |
| COC(=O)c1ccc(CC(C)NCC(O)c2cccc(OC(F)(F)F)c2)cc1 (stereo not drawn) | 4.38% |
| FC(F)(F)c1cccc(N2CCC(CN3CCC(c4c[nH]c5ccccc45)CC3)CC2)n1 | 4.62% |
| CC[C@H]1CN2CC[C@H]1C[C@H]2[C@@H](O)c1cc(OCCCN(C)C)nc2ccc(OC)cc12 | 0.71% |
| CC[C@H]1CN2CC[C@H]1C[C@@H]2[C@@H](O)c1ccnc2ccccc12 | 1.5% |
| Cc1cc(N)nc2ccc(CNCCc3ccccc3Br)cc12 | 6.43% |
| COCCSc1ccc(CC(C)NCC(O)c2cccc(Cl)c2)cc1 (stereo not drawn) | 4.35% |
| CC(C)CNCc1ccc(-c2ccc(CN(C(=O)NC3CCCCC3)C3CCN(Cc4ccccc4)CC3)cc2)cc1 | 8.46% |
| Oc1ccc(CN2CCN(CCOC(c3ccccc3)c3ccccc3)CC2)cc1Cl | 3.57% |
| O=C(CCC(=O)c1ccc2c3c(cccc13)CC2)NC1CCC(CN2CCC(c3c[nH]c4ccccc34)CC2)CC1 (stereo not drawn) | 3.76% |
| O=C(/C=C/c1cc(C(F)(F)F)ccc1F)N1CCC(CN2CCC(c3c[nH]c4ccccc34)CC2)CC1 | 1.5% |
| COc1ccc(C(=O)C2CC2CN2CC=C(c3c[nH]c4ccc(OC)nc34)CC2)cc1 (stereo not drawn) | 2.94% |
| O=C(/C=C/c1ccc(C(F)(F)F)cc1)NC1CCC(CN2CCC(c3c[nH]c4ccccc34)CC2)CC1 (stereo not drawn) | 7.09% and 5.88% |
| O=C(NC1CCC(CN2CCC(c3c[nH]c4ccccc34)CC2)CC1)c1csc(-c2cccc(Cl)c2Cl)n1 (stereo not drawn) | 4.29% |
| O=C(/C=C/c1ccc(Cl)c(Cl)c1)N1CCC(CN2CCC(c3c(-c4ccccc4)[nH]c4ccccc34)CC2)CC1 | 6.47% |
| COCCNCc1ccc(-c2ccc(CN(C(=O)Nc3ccccc3)C3CCN(Cc4ccccc4)CC3)cc2)cc1 | 5.88% |
| Cc1c(C)c2c(c(C)c1O)CC[C@@](C)(C(=O)NC1CCC(CN3CCC(c4c[nH]c5ccccc45)CC3)CC1)O2 (stereo partly drawn) | 7.52% |
| O=C(CC1CCCC1)N(CC1CCN(Cc2ccc(C(F)(F)F)cc2)CC1)c1ccc(N2CCOCC2)c(F)c1 | 3.1% |
